Measured values from the supplement of paper PMC8728848.
The other results are listed elsewhere or left out.

Legend:
Assay in all cases: glycan array binding signal (z-score within array); higher = stronger binding
Settings in all cases: glycan notation: IUPAC condensed, linker removed
Gal6S(b1-4)Glc6S = target: Gal6S(b1-4)Glc6S
In short: (§1)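 From the Consortium for Functional Glycomics database, 3228 arrays were curated, keeping only those whose protein sequence was available. Binding is given as a within-array Z-score averaged across arrays sharing a protein sequence and across linkers. Negative Z-scores can be read as non-binding.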

Gal6S(b1-4)GlcNAc = target: Gal6S(b1-4)GlcNAc
In short: as §1

Gal6S(b1-4)GlcNAc6S = target: Gal6S(b1-4)GlcNAc6S
In short: as §1

GalNAc(a1-3)Gal = target: GalNAc(a1-3)Gal
In short: as §1

GalNAc(a1-3)GalNAc = target: GalNAc(a1-3)GalNAc
In short: as §1

[1] = target: GalNAc(a1-3)GalNAc(b1-3)Gal(a1-4)Gal(b1-4)Glc
In short: as §1

[2] = target: GalNAc(a1-3)GalNAc(b1-3)Gal(a1-4)Gal(b1-4)GlcNAc
In short: as §1

GalNAc(b1-3)Gal = target: GalNAc(b1-3)Gal
In short: as §1

[3] = target: GalNAc(b1-3)Gal(a1-4)Gal(b1-4)GlcNAc
In short: as §1

[4] = target: GalNAc(b1-3)Gal(a1-4)Gal(b1-4)GlcNAc(b1-3)Gal(b1-4)Glc
In short: as §1

[5] = target: GalNAc(b1-3)Gal(a1-6)Gal(b1-4)Glc
In short: as §1

GalNAc(b1-3)GalNAc = target: GalNAc(b1-3)GalNAc
In short: as §1

GalNAc(b1-3)GlcNAc = target: GalNAc(b1-3)GlcNAc
In short: as §1

GalNAc(b1-4)Gal(b1-4)Glc = target: GalNAc(b1-4)Gal(b1-4)Glc
In short: as §1

GalNAc(b1-4)GlcNAc = target: GalNAc(b1-4)GlcNAc
In short: as §1

[6] = target: GalNAc(b1-4)GlcNAc(b1-2)Man
In short: as §1

[7] = target: GalNAc(b1-4)GlcNAc(b1-2)Man(a1-3)[GalNAc(b1-4)GlcNAc(b1-2)Man(a1-6)]Man(b1-4)GlcNAc(b1-4)GlcNAc
In short: as §1

[8] = target: GalNAc(b1-4)GlcNAc(b1-3)GalNAc(b1-4)GlcNAc
In short: as §1

GalNAc(b1-4)GlcNAc6S = target: GalNAc(b1-4)GlcNAc6S
In short: as §1

GalNAc(b1-6)GalNAc = target: GalNAc(b1-6)GalNAc
In short: as §1

GalNAc3S(b1-4)GlcNAc = target: GalNAc3S(b1-4)GlcNAc
In short: as §1

GalNAc3S(b1-4)GlcNAc3S = target: GalNAc3S(b1-4)GlcNAc3S
In short: as §1

[9] = target: GalNAc3S(b1-4)[Fuc(a1-3)]GlcNAc
In short: as §1

GalNAc4S6S(b1-4)GlcNAc = target: GalNAc4S6S(b1-4)GlcNAc
In short: as §1

GalNAc6S(b1-4)GlcNAc = target: GalNAc6S(b1-4)GlcNAc
In short: as §1

Glc(a1-4)Glc = target: Glc(a1-4)Glc
In short: as §1

[10] = target: Glc(a1-4)Glc(a1-4)Glc(a1-4)Glc
In short: as §1

Glc(a1-6)Glc(a1-6)Glc = target: Glc(a1-6)Glc(a1-6)Glc
In short: as §1

[11] = target: Glc(a1-6)Glc(a1-6)Glc(a1-6)Glc
In short: as §1

Glc(b1-4)Glc = target: Glc(b1-4)Glc
In short: as §1

Glc(b1-6)Glc = target: Glc(b1-6)Glc
In short: as §1

GlcA(b1-3)Gal = target: GlcA(b1-3)Gal
In short: as §1

GlcA(b1-3)GlcNAc = target: GlcA(b1-3)GlcNAc
In short: as §1

GlcA(b1-6)Gal = target: GlcA(b1-6)Gal
In short: as §1

[12] = target: GlcA3S(b1-3)Gal(b1-4)GlcNAc(b1-2)Man
In short: as §1

[13] = target: GlcA3S(b1-3)Gal(b1-4)GlcNAc(b1-3)Gal(b1-4)Glc
In short: as §1

[14] = target: GlcNAc(a1-3)Gal(b1-4)GlcNAc
In short: as §1

[15] = target: GlcNAc(a1-4)Gal(b1-3)GlcNAc
In short: as §1

[16] = target: GlcNAc(a1-4)Gal(b1-4)GalNAc
In short: as §1

[17] = target: GlcNAc(a1-4)Gal(b1-4)GlcNAc
In short: as §1

[18] = target: GlcNAc(a1-4)Gal(b1-4)GlcNAc(b1-3)Gal(b1-4)Glc
In short: as §1

[19] = target: GlcNAc(a1-4)Gal(b1-4)GlcNAc(b1-3)Gal(b1-4)GlcNAc
In short: as §1

[20] = target: GlcNAc(a1-4)Gal(b1-4)GlcNAc(b1-3)Gal(b1-4)GlcNAc(b1-3)Gal(b1-4)GlcNAc
In short: as §1

[21] = target: GlcNAc(a1-4)Gal(b1-4)GlcNAc(b1-3)Gal(b1-4)[Fuc(a1-3)]GlcNAc(b1-3)Gal(b1-4)[Fuc(a1-3)]GlcNAc
In short: as §1

[22] = target: GlcNAc(a1-6)Gal(b1-4)GlcNAc
In short: as §1

B1: Si Bti9 1b-HA (Solanum lycopersicum) (protein)
chain: MFESRPRSVLSLGVFVILVYLSSVPLPVNSQCNRGCDLALASFYVWRGSNLTLISEMFSTSIADIVSYNNRDNIPNQDSVIAGTRINIPFRCDCLNDGEVLGHAFPYRVKSGDTYDLVARNYSDLTTAQWMMKFNSYPENNIPNTVNLSVVVNCSCGNSDVSKDFGLFVTYPVRAEDNLTSVASAANVSEDIIRRYNPAAVSILDIGQGIIYIPGRDRNGNFPPLPTSTDGLSGGAKAPLFFNPAFLYKVVELKLAGRSRTSGYPYDVPDYAGYPYDVPDYALEVLFQ
glycan array binding signal (z-score) (Gal6S(b1-4)Glc6S): 0.052 | glycan array binding signal (z-score) (Gal6S(b1-4)GlcNAc): -0.69 | glycan array binding signal (z-score) (Gal6S(b1-4)GlcNAc6S): -0.401 | glycan array binding signal (z-score) (GalNAc(a1-3)Gal): -0.495 | glycan array binding signal (z-score) (GalNAc(a1-3)GalNAc): -0.348 | glycan array binding signal (z-score) [1]: -0.378 | glycan array binding signal (z-score) [2]: -0.179 | glycan array binding signal (z-score) (GalNAc(b1-3)Gal): 0.977 | glycan array binding signal (z-score) [3]: 0.138 | glycan array binding signal (z-score) [4]: -0.491 | glycan array binding signal (z-score) [5]: -0.183 | glycan array binding signal (z-score) (GalNAc(b1-3)GalNAc): -0.227 | glycan array binding signal (z-score) (GalNAc(b1-3)GlcNAc): -0.209 | glycan array binding signal (z-score) (GalNAc(b1-4)Gal(b1-4)Glc): 1.15 | glycan array binding signal (z-score) (GalNAc(b1-4)GlcNAc): -0.116 | glycan array binding signal (z-score) [6]: -0.452 | glycan array binding signal (z-score) [7]: 0.635 | glycan array binding signal (z-score) [8]: -0.01 | glycan array binding signal (z-score) (GalNAc(b1-4)GlcNAc6S): -0.204 | glycan array binding signal (z-score) (GalNAc(b1-6)GalNAc): -0.608 | glycan array binding signal (z-score) (GalNAc3S(b1-4)GlcNAc): -0.59 | glycan array binding signal (z-score) (GalNAc3S(b1-4)GlcNAc3S): -0.336 | glycan array binding signal (z-score) [9]: -0.449 | glycan array binding signal (z-score) (GalNAc4S6S(b1-4)GlcNAc): -0.286 | glycan array binding signal (z-score) (GalNAc6S(b1-4)GlcNAc): -0.519 | glycan array binding signal (z-score) (Glc(a1-4)Glc): 0.127 | glycan array binding signal (z-score) [10]: 0.208 | glycan array binding signal (z-score) (Glc(a1-6)Glc(a1-6)Glc): 0.168 | glycan array binding signal (z-score) [11]: -0.061 | glycan array binding signal (z-score) (Glc(b1-4)Glc): 0.238 | glycan array binding signal (z-score) (Glc(b1-6)Glc): 0.237 | glycan array binding signal (z-score) (GlcA(b1-3)Gal): 0.093 | glycan array binding signal (z-score) (GlcA(b1-3)GlcNAc): -0.011 | glycan array binding signal (z-score) (GlcA(b1-6)Gal): -0.21 | glycan array binding signal (z-score) [12]: -0.207 | glycan array binding signal (z-score) [13]: -0.157 | glycan array binding signal (z-score) [14]: -0.398 | glycan array binding signal (z-score) [15]: -0.3 | glycan array binding signal (z-score) [16]: -0.387 | glycan array binding signal (z-score) [17]: -0.529 | glycan array binding signal (z-score) [18]: -0.309 | glycan array binding signal (z-score) [19]: -0.377 | glycan array binding signal (z-score) [20]: -0.231 | glycan array binding signal (z-score) [21]: 0.086 | glycan array binding signal (z-score) [22]: -0.574
